Measured values from PubChem BioAssay AID1240 (Sanford-Burnham Center for Chemical Genomics, 2008).
The whole screen tested about 50,000 compounds, of which about 800 (1.6%) showed an effect of 50% or more. This is one part of the list.

What follows are compounds tested against Bcl-2-like protein 10 (Homo sapiens) (UniProt Q9HD36) (assay: TR3 peptide-Bcl-B binding displacers, biochemical primary FP assay, phenotype converters (AID 1240;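 also: 0% = Bcl-B with tracer peptide and DMSO and 100% = tracer peptide lacking Bcl-B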)). Conditions: GST-Bcl-B / FITC-TR3 peptide fluorescence polarization; stronger effect = higher value; compound at 3.75 mg/L.
Chain of UniProt Q9HD36 (Q9HD36 whole entry, looked up): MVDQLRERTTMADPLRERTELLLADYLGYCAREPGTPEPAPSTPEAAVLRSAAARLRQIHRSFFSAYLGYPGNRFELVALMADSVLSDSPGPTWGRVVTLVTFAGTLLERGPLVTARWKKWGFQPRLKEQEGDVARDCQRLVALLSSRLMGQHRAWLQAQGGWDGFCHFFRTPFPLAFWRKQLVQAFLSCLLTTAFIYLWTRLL

How did the displacement turn out when `Cc1cc(C)nc(/N=C(/N)Nc2ccc(C(=O)O)cc2)n1` was run?
Its displacement is 1.3%.

Which displacement does the source give for `CCCOC(=O)c1ccc(NC(=O)c2c(-c3c(Cl)cccc3Cl)noc2C)cc1` here?
The displacement was 7.4%.

Which displacement does the source give for `CCCCSc1nnc2c(n1)OC1(Nc3ccccc3-2)C(=O)Nc2ccc(F)cc21` (stereo not drawn) here?
The displacement was 7.9%.

For `CCCn1c(C(O)c2cc(OC)ccc2OC)nc2ccccc21` (stereo not drawn), which displacement is on record?
Its displacement is -2%.

With `O=C(Nc1ccc(Cl)cn1)c1cc(Br)ccc1Cl` as the compound, how does the displacement read?
Its displacement is -0.7%.

How did the displacement turn out when `COc1cc(C2NC(=O)NC(C)=C2C(=O)OCCc2ccccc2)cc(Cl)c1O` (stereo not drawn) was run?
Its displacement is 13.6%.

`O=C1CSC(=S)N1N1C(=O)c2ccccc2C1=O` was tested. Which displacement did it give?
The displacement was -1.3%.

With `Cc1cc(C)c(OCCN2CCOCC2)c(Cl)c1` as the compound, how does the displacement read?
Its displacement is 7%.

For `C/C(=C\c1ccccc1)C(=O)Nc1c(C)n(C)n(-c2ccccc2)c1=O`, which displacement is on record?
Its displacement is 1.6%.

`CCOC(=O)C1CCCn2c1nc1scc(-c3ccccc3)c1c2=O` (stereo not drawn) was tested. Which displacement did it give?
Its displacement is -14.2%.

For `COc1ccc(NC(=O)C2=C(C)NC(=O)NC2c2ccc(C)cc2)cc1` (stereo not drawn), which displacement is on record?
The displacement was 0%.

How did the displacement turn out when `CCOc1cc(/C=N/N2CCN(Cc3ccc(Cl)cc3)CC2)ccc1O` was run?
Its displacement is 25%.

`CC12C(=O)C(C)(C(c3ccccc3)=C1c1ccccc1)C1C(=O)N(c3ccc(Cl)cc3)C(=O)C12` (stereo not drawn) was tested. Which displacement did it give?
The displacement was 4.5%.

How did the displacement turn out when `COC(=O)C(C(=O)OC)C(c1ccccc1)C(C(=O)OC)C(=O)OC` was run?
The displacement was -8.5%.

Which displacement does the source give for `CN(C)CCN1C(=O)C(=O)/C(=C(/O)c2ccccc2)C1c1ccc(N(C)C)cc1` (stereo not drawn) here?
The displacement was 3.8%.

How did the displacement turn out when `O=C(Nc1ccc2nccnc2c1)N1CCN(c2ccccc2)CC1` was run?
The displacement was 5.9%.

For `O=C(c1ccccc1)N1N=C2CCCCCC2C1(O)C(F)(F)F` (stereo not drawn), which displacement is on record?
The displacement was -1.7%.

With `COCCNC(=O)c1ccc(Cl)cc1Cl` as the compound, how does the displacement read?
Its displacement is -5.3%.

`CC(C)(C)C(=O)NNC(=O)C(=O)N1CCOCC1` was tested. Which displacement did it give?
The displacement was -4.6%.

Which displacement does the source give for `C(=N\N=C\c1ccc2c(c1)OCO2)/c1ccc2c(c1)OCO2` here?
The displacement was 4.9%.

`O=C(CN1C(=O)c2cccc3cccc(c23)C1=O)N1CCN(CCN2C(=O)C3C4C=CC(C4)C3C2=O)CC1` (stereo not drawn) was tested. Which displacement did it give?
The displacement was -1.9%.

`O=c1oc2cc(OCc3ccc(F)cc3)c(Cl)cc2c2c1CCC2` was tested. Which displacement did it give?
Its displacement is 0.9%.

For `CC(C)(C)c1ccc(S(=O)(=O)Nc2ccc(Cl)cc2)cc1`, which displacement is on record?
Its displacement is 14%.

Which displacement does the source give for `CN1C(=O)CC(N2CCN(c3ccccc3)CC2)C1=O` (stereo not drawn) here?
Its displacement is 6.2%.

Which displacement does the source give for `CC1=C(C(=O)OCCOc2ccccc2)C(c2ccc(Cl)cc2)NC(=O)N1` (stereo not drawn) here?
The displacement was 9.1%.

Which displacement does the source give for `COc1ccc(N2C(=O)/C(=C/c3ccc(-c4ccccc4[N+](=O)[O-])o3)C(=O)NC2=S)cc1` here?
The displacement was 15.9%.

Which displacement does the source give for `COC(=O)c1ccccc1NC(=O)c1ccc(-c2cccc(Cl)c2)o1` here?
The displacement was 1.9%.

Which displacement does the source give for `O=C(c1ccc(Cl)cc1)N1CCN(c2c(Cl)cccc2[N+](=O)[O-])CC1` here?
Its displacement is 12.6%.

`Nc1cccc(C(=O)Nc2ccc(C(=O)O)cc2)c1` was tested. Which displacement did it give?
Its displacement is 13.5%.

How did the displacement turn out when `CCCc1ccc(-c2nc(Cc3ccc(OC)cc3)no2)cc1` was run?
The displacement was -8.7%.

`CC(=O)Nc1ccccc1NC(=O)COc1ccc(Br)c(C)c1` was tested. Which displacement did it give?
The displacement was 5.9%.

`COC(=O)c1c(NC(=O)c2cc3ccccc3oc2=O)sc2c1C(C(=O)OC)CC2` (stereo not drawn) was tested. Which displacement did it give?
Its displacement is 8.1%.

For `Cc1nc2sc3c(c2c(=O)[nH]1)CCC3`, which displacement is on record?
The displacement was 8.7%.

How did the displacement turn out when `COc1ccc(C(=O)NCc2ccccc2C)cc1OC` was run?
Its displacement is 16.3%.

With `CCS(=O)(=O)C(=CNc1ccccc1)S(=O)(=O)CC` as the compound, how does the displacement read?
Its displacement is 13.5%.

`CC1(C)CC(=O)C2=C(C1)OC1=C(C(=O)CC(C)(C)C1)C2c1ccc(Br)c([N+](=O)[O-])c1` was tested. Which displacement did it give?
The displacement was 11.9%.

With `Cc1ccccc1C(=O)NCc1ccco1` as the compound, how does the displacement read?
Its displacement is -7.7%.

Which displacement does the source give for `CC1(C)Cc2c(ccc3ccccc23)C(=O)N1` here?
Its displacement is 11.1%.

For `COc1ccc(Br)cc1CN1CCN(C(=O)c2cccc(Cl)c2)CC1`, which displacement is on record?
The displacement was 3.4%.

Which displacement does the source give for `Cc1cc(C)c(C(=O)/C(=C/c2ccccc2F)c2ccccc2)c(=O)[nH]1` here?
The displacement was -3.4%.

For `N#C/C(=C/c1ccc(-c2ccccc2)cc1)c1nc(-c2ccc(Cl)cc2)cs1`, which displacement is on record?
The displacement was 10.2%.

How did the displacement turn out when `COc1ccccc1N1CCN(C(=O)c2cc(-c3ccccc3Cl)nc3ccccc23)CC1` was run?
The displacement was -3.2%.

`CCCCCCNC(=O)c1ccc(F)cc1` was tested. Which displacement did it give?
Its displacement is 2.4%.

For `Cc1ccc2c(c1)-c1c(ssc1=S)C(C)(C)N2C(=O)CSc1nc2ccccc2o1`, which displacement is on record?
Its displacement is 32.6%.

With `CN1CCN(CC(=O)n2c3ccccc3c3ccccc32)CC1` as the compound, how does the displacement read?
Its displacement is -6.7%.

For `O=C(COc1cc2oc(=O)c3c(c2cc1Cl)CCCC3)OCc1ccccc1`, which displacement is on record?
The displacement was 0.7%.

For `O=C(O)c1cccnc1SC1CC(=O)N(c2ccc([N+](=O)[O-])cc2)C1=O` (stereo not drawn), which displacement is on record?
Its displacement is 5.9%.

With `COc1ccc(S(=O)(=O)N(CCc2ccccc2)CC(=O)NCC2CCCO2)cc1` (stereo not drawn) as the compound, how does the displacement read?
Its displacement is -15.8%.

`Cn1nc(CC(=O)O)c2ccccc2c1=O` was tested. Which displacement did it give?
The displacement was 7.8%.

Which displacement does the source give for `COc1cc(/C=N/n2cnnc2)ccc1OS(=O)(=O)c1ccccc1[N+](=O)[O-]` here?
The displacement was -2%.

With `CCCOc1ccc(C(=O)Nc2ncc(Cc3ccc(F)cc3)s2)cc1` as the compound, how does the displacement read?
The displacement was -11.1%.

Which displacement does the source give for `COc1cc(NS(=O)(=O)c2cccc([N+](=O)[O-])c2)cc(OC)c1` here?
Its displacement is -3.6%.

`O=C1CC(c2ccc3c(c2)OCO3)CC2=C1C(c1ccc(-c3ccccc3)cc1)Nc1ccccc1N2` (stereo not drawn) was tested. Which displacement did it give?
Its displacement is 3%.

Which displacement does the source give for `CCOc1ccc(/C=N/Nc2nc(-c3ccc(C)cc3)nc3ccccc23)c(O)c1` here?
The displacement was 34.7%.

With `O=C(Nc1ccc(-c2nc3ccccc3o2)cc1)c1ccco1` as the compound, how does the displacement read?
Its displacement is 10%.

How did the displacement turn out when `CCc1ccc(N2NC(=O)/C(=C/c3ccc(N4CCOCC4)cc3)C2=O)cc1` was run?
Its displacement is 5%.

For `Cc1ccc(N=Cc2c(C)[nH]c3ccccc23)cc1I`, which displacement is on record?
The displacement was 6.1%.

With `Cc1cccc(N2C(=O)CC(N3CCN(C/C=C/c4ccccc4)CC3)C2=O)c1` (stereo not drawn) as the compound, how does the displacement read?
The displacement was 9.3%.

`Cc1cc(OCC(=O)Nc2ccc(F)cc2)ccc1Br` was tested. Which displacement did it give?
Its displacement is -13.4%.

For `CCOC(=O)CSCCOc1ccc(/C=C2/C(=O)NC(=O)N(c3ccc(OC)cc3)C2=O)cc1OC`, which displacement is on record?
Its displacement is 17.6%.

`CC(C)(C)c1ccc(-c2nn(CCC#N)cc2/C=N/O)cc1` was tested. Which displacement did it give?
The displacement was 1.1%.

`O=C(N/N=C/c1ccccc1O)NC12CC3CC(CC(C3)C1)C2` was tested. Which displacement did it give?
The displacement was -2.4%.

With `CCOC(=O)c1ccc(NC2=NC(C)(C)Cc3ccccc32)cc1` as the compound, how does the displacement read?
The displacement was -3.3%.

`O=C(c1cc2n(n1)C(C(F)(F)F)CC(c1ccc(Cl)c(Cl)c1)N2)N1CCN(Cc2ccccc2)CC1` (stereo not drawn) was tested. Which displacement did it give?
Its displacement is 6.2%.

`CCc1ccc(CN2CCN(Cc3ccc(OC)cc3OC)CC2)cc1` was tested. Which displacement did it give?
The displacement was -2.3%.

Which displacement does the source give for `CCOC(=O)C(=CNc1ccc(F)c(F)c1O)C(=O)OCC` here?
The displacement was -13%.

For `CN1CCN(CC(=O)N2c3ccccc3C(C)(c3ccccc3)CC2(C)C)CC1` (stereo not drawn), which displacement is on record?
Its displacement is -3.9%.

How did the displacement turn out when `O=C1NC(=O)N(c2ccccc2)C(=O)/C1=C\c1cccc(OCc2ccc(F)cc2)c1` was run?
The displacement was 13.6%.
